Test results reported in article PMC4336329 (PLoS ONE, 2015).
Screen size: about 310,000 compounds; about 14,000 (4.5%) showed an effect of 50% or more. Effects have a minus sign here. The list shows a part of the results.

Biological target: human ether-à-go-go-related gene (hERG) potassium channel (human, UniProt Q12809)
Test: primary screen, population patch clamp on CHO cells stably expressing hERG
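Also: peak tail current of the secondary pulse compared with the same well before compound.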

human ether-à-go-go-related gene (hERG) potassium channel, sequence (Q12809 whole entry, looked up): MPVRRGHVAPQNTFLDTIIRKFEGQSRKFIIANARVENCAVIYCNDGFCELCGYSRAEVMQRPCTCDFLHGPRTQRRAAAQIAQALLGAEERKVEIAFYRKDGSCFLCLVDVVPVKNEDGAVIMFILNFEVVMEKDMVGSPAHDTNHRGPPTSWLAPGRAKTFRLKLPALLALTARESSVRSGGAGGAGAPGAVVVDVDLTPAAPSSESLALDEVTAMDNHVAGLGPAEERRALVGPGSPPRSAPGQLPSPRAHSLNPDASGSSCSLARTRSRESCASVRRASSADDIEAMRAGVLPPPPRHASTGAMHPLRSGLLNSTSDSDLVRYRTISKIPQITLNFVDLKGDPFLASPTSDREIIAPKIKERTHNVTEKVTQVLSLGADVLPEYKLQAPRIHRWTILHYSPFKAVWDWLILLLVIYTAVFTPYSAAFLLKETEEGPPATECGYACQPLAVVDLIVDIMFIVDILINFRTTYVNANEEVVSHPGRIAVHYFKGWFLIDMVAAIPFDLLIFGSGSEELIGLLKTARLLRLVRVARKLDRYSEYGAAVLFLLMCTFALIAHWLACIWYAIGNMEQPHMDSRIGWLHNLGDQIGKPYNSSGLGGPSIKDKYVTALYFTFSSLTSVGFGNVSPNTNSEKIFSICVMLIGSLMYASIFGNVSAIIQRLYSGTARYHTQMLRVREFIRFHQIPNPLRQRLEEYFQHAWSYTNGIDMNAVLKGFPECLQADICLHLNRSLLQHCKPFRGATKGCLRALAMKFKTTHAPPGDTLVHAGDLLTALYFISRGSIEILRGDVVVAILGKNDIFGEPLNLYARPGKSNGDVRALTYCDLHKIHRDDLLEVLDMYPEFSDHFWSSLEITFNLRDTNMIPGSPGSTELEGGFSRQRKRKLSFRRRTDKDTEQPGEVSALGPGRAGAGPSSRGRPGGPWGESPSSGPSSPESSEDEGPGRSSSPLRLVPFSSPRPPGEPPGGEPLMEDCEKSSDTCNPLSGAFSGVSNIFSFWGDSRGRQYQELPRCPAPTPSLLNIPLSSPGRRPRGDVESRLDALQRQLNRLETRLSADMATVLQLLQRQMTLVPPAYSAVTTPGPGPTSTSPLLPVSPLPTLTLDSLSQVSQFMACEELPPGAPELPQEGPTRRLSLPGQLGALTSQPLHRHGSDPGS

Row | SMILES | hERG current change (%, negative = inhibition) at 10uM
1 | COc1ccc(NC(=O)NCc2ccccc2F)cc1OC | 4.08%
2 | C=CCn1c(=NC(=O)c2ccc(S(=O)(=O)N3CCc4ccccc4C3)cc2)sc2cc(S(N)(=O)=O)ccc21 | -0.289%
3 | COc1cccc(NC(=O)c2ccccc2)c1 | 3.52%
4 | CCOC(=O)C(=CNc1cc(OC)ccc1-n1cccc1)C(=O)OCC | -21.6%
5 | Cc1c(C(=O)O)oc2c1ccc1ccccc12 | 24.6%
6 | CN(C)CCCN(C(=O)COc1ccc(Cl)cc1)c1nc2cc3c(cc2s1)OCO3.Cl | -59.7%
7 | Nn1cnnc1SCC(=O)Nc1ccc2c(c1)OCCO2 | 1.69%
8 | COc1ccc(N2CCN(C(=O)c3cc(-c4cccs4)nc4ccccc34)CC2)cc1 | 25.7%
9 | O=C(NC(=S)N(Cc1ccccc1)c1ccccn1)C1CC1 | 4.18%
10 | Cc1ccc(S(=O)(=O)Nc2ccc(-c3csc(-c4ccccc4)n3)cc2)cc1 | -2.79%
11 | CC(=O)c1ccc(OCc2cc(C(=O)NCCN3CCCC(O)C3)no2)cc1 (stereo not shown) | 8.26%
12 | C[C@H](NC(=O)c1ncn(Cc2ccccc2)c1C(=O)N[C@@H](C)c1ccccc1)c1ccccc1 | -2.7%
13 | CCCCCCCC(=O)NC(Nc1ccccc1OC)C(Cl)(Cl)Cl (stereo not shown) | 18.2%
14 | O=C(CSCCc1ccccn1)Nc1cccnc1Cl | -4.44%
15 | O=CNCCc1nc2ccccc2n1CCc1ccccc1 | 15.1%
16 | Cc1ccccc1N1CCN(S(=O)(=O)c2nnc(NC(=O)c3ccc(F)cc3)s2)CC1 | 17.2%
17 | CN(C)S(=O)(=O)c1cccc(NC(=S)NCc2ccc3c(c2)OCO3)c1 | -19.5%
18 | COc1ccc(C(=O)N(Cc2ccccc2)c2ccc(C)cc2)cc1S(=O)(=O)N1CCOCC1 | -67.7%
19 | O=C1CC(Cc2ccccc2)C(=O)N1c1ccccn1 (stereo not shown) | 19%
20 | COc1ccc(-c2nnc3n2CCCCC3)cc1 | 19.9%
21 | COc1ccc(-c2nc3nc(C)c(Cc4ccccc4)c(=O)n3[nH]2)cc1 | -14.1%
22 | CCn1c(=N)c(S(=O)(=O)c2ccc(C)cc2)cc2c(=O)n3ccccc3nc21 | -5.3%

Row | SMILES | hERG current change (%, negative = inhibition) at 10uM
23 | Cc1ccc(S(=O)(=O)N2CCCC2c2cccnc2)cc1 (stereo not shown) | -13.4%
24 | COC(=O)c1cccc(C23CC4(C2)[C@H](CN(C)[C@@H]4c2ccccc2)C3c2ccc(C(F)(F)F)cc2)c1 (stereo partly shown) | 14.5%
25 | Cc1ccccc1NS(=O)(=O)c1ccc(OCC(=O)NCc2cccnc2)cc1 | -32.8%
26 | CSc1nsc(SCC(=O)Nc2ccc(NC(C)=O)cc2)n1 | 8.9%
27 | O=C(N/N=C\c1cccc(Cl)c1)c1n[nH]c2c1CCCC2 | 8.51%
28 | O=C(CCS(=O)(=O)Cc1ccccc1)N1CCN(c2ccc([N+](=O)[O-])cc2)CC1 | -81.6%
29 | O=C(O)c1c2c(nc3ccc(S(=O)(=O)N4CCC(C(=O)NC5CCCC5)CC4)cc13)CCCCC2 | 9.65%
30 | O=C(COC(=O)c1cccc(NC(=O)c2ccco2)c1)c1ccc(Br)cc1 | -1.83%
31 | O=C(C1CCC(CNS(=O)(=O)c2ccc(F)cc2)CC1)N1CCOCC1 (stereo not shown) | 9.16%
32 | COc1cccc(N2CCN(C(=O)c3ccc(=O)oc3)CC2C)c1 (stereo not shown) | -59.7%
33 | Cc1ccc(-c2csc(N3CCC(C(N)=O)(N4CCCCC4)CC3)n2)cc1 | 3.99%
34 | O=C(COc1cccnc1[N+](=O)[O-])c1c[nH]c2ccccc12 | 13.9%
35 | CCc1ccc2[nH]cc(C(=O)N3CCCCCC3)c(=O)c2c1 | -4.9%
36 | Cc1cc(O)cc(O)c1C(=O)Cc1cscn1 | 10.3%
37 | COc1ccc(N(CC(=O)NC(C)(C)C)S(=O)(=O)c2ccccc2)cc1OC | -5.98%
38 | O=C(Nc1cccc(Cl)c1)c1cccnn1 | 12.9%
39 | COc1ccc(S(=O)(=O)NC(C)C(=O)NCCN2CCOCC2)cc1Cl (stereo not shown) | 6.96%
40 | CC(C)(C)n1nnnc1C(c1cccnc1)N1CCN(C2CCCCC2)CC1 (stereo not shown) | -2.19%
41 | Cc1ccc(NC(=O)CN2CCc3ccccc3C2)cc1S(=O)(=O)N1CCOCC1 | -15.3%
42 | COc1ccc(C(CNC(=O)c2cccc(S(=O)(=O)N3CCOCC3)c2)N2CCCC2)cc1 (stereo not shown) | -16.3%
43 | CCN(CC)S(=O)(=O)c1cccc(C(=O)OC2CC(C)OC2=O)c1 (stereo not shown) | 12.7%
